Measurements reported in paper PMC10668032.
This is one part of the list. At the low end of the ranking the order means little.

The sequences below were run against SIX1 homeodomain (reference allele) (UniProt Q15475) (assay: universal protein binding microarray). Conditions: Universal all-10-mer PBM (8x60K, AMADID 030236), 300 nM GST-tagged protein, Alexa Fluor 488 anti-GST; buffer, salt, pH and temperature not stated; high values mean tight binding; most listed sequences are background and not binding sites; double strand, one strand shown.
With ACCAGTCT the binding signal was -0.00903 E-score. Work on CCCTAGTC yielded a binding signal of -0.153 E-score. Work on CACTCTAG yielded a binding signal of 0.0543 E-score. For ACTTCCCG, the binding signal was 0.0099 E-score. Work on CCGATGGC yielded a binding signal of -0.0673 E-score. For ATTCCGAC, the binding signal was -0.00675 E-score. In the case of AACCCCTT, the binding signal is reported as 0.0305 E-score. For ATAGTAAA, the binding signal was -0.033 E-score. In the case of GCGGATCA, the binding signal is reported as 0.448 E-score. With GGGTAAGA the binding signal was 0.032 E-score. AAAACGGT gave a binding signal of -0.109 E-score. TACTGGGA was tested, and the binding signal was 0.0604 E-score. Sequence ACGGGCGG has a binding signal of -0.056 E-score. In the case of AAGCACAG, the binding signal is reported as -0.15 E-score. For ACCAATTG, the binding signal was -0.0361 E-score. Sequence CAAGAACG has a binding signal of 0.0292 E-score. GGTATCCA showed a binding signal of 0.464 E-score. For GCTAGTCA, the binding signal was -0.151 E-score. ATAAAGGA was tested, and the binding signal was 0.0157 E-score. Sequence AGCCTAAC has a binding signal of -0.149 E-score. AGATGCCG showed a binding signal of 0.0882 E-score. ATCTAAAG showed a binding signal of 0.0517 E-score. ATATCTGG was tested, and the binding signal was 0.298 E-score. ACGGTTTA gave a binding signal of 0.146 E-score. Sequence CTACTTAC has a binding signal of -0.0461 E-score. With CCCACAAG the binding signal was 0.0193 E-score. With AACCGCAA the binding signal was -0.082 E-score. ACAGGAGT gave a binding signal of -0.0647 E-score. Sequence GCGGCGCA has a binding signal of -0.111 E-score. AAGCAGGT was tested, and the binding signal was -0.128 E-score. Sequence ATCCTTGA has a binding signal of 0.192 E-score. GAGCAATA gave a binding signal of 0.151 E-score. With GCTTCACA the binding signal was -0.149 E-score. GATTAGCC gave a binding signal of 0.0282 E-score. CGGGCCTC showed a binding signal of -0.154 E-score. In the case of CTCACCAC, the binding signal is reported as -0.131 E-score. AAGCGAAT gave a binding signal of -0.0579 E-score. With AGTCTACG the binding signal was -0.038 E-score. With GCAGGCAA the binding signal was 0.0408 E-score. Work on AGATCTCC yielded a binding signal of 0.184 E-score. CTGCAAAA gave a binding signal of -0.127 E-score. In the case of GCCGACTA, the binding signal is reported as -0.201 E-score. Work on GGAGACAC yielded a binding signal of 0.219 E-score. Work on AGACCCCA yielded a binding signal of 0.118 E-score. ATCTCGCG was tested, and the binding signal was 0.257 E-score. TTAAAGAA gave a binding signal of -0.171 E-score. ACGGCTGG was tested, and the binding signal was -0.0748 E-score. Sequence ATTCAATC has a binding signal of 0.0984 E-score. For CCTCGTGA, the binding signal was 0.0568 E-score. In the case of CATAACAC, the binding signal is reported as 0.161 E-score. TCGAGACA showed a binding signal of 0.0221 E-score. GGGGTCAC was tested, and the binding signal was 0.111 E-score. ACTAGAGC showed a binding signal of -0.101 E-score. In the case of ACACCAGC, the binding signal is reported as 0.211 E-score. Work on AAGCCTTA yielded a binding signal of -0.178 E-score. In the case of ATCGGTGA, the binding signal is reported as 0.232 E-score. CTGCGAGC showed a binding signal of -0.0471 E-score. TATATCAA showed a binding signal of 0.361 E-score. Sequence GAACAGAA has a binding signal of -0.226 E-score. AATGCCCC showed a binding signal of -0.0279 E-score. Sequence ACTTTCCG has a binding signal of -0.28 E-score. In the case of CGTATGAC, the binding signal is reported as 0.0448 E-score. With CGTAGTAA the binding signal was -0.1 E-score. CACCTACC gave a binding signal of -0.14 E-score. CACACGGA showed a binding signal of 0.141 E-score. In the case of CGCCATCC, the binding signal is reported as 0.0833 E-score. ACGTCGTA gave a binding signal of -0.0201 E-score. Sequence GATTACGC has a binding signal of 0.225 E-score. ATATCGAA was tested, and the binding signal was 0.393 E-score. In the case of CCAAGGGC, the binding signal is reported as -0.287 E-score. In the case of CCAGCACG, the binding signal is reported as -0.0508 E-score. ACCTGGGC gave a binding signal of -0.0576 E-score. With ATTGAGCC the binding signal was 0.114 E-score. Work on ATTATGTA yielded a binding signal of 0.122 E-score. Sequence TGGCAAAA has a binding signal of -0.23 E-score. In the case of ATCGGCGG, the binding signal is reported as 0.231 E-score. For CTCTCTTA, the binding signal was -0.155 E-score. Work on CGGACCAA yielded a binding signal of -0.151 E-score. GCCGAGCC was tested, and the binding signal was -0.099 E-score. Work on GGTCGTAA yielded a binding signal of -0.0305 E-score. ACTCGGCC was tested, and the binding signal was -0.27 E-score. CGAACGGC showed a binding signal of -0.192 E-score. Sequence CCGTGATC has a binding signal of 0.364 E-score. Work on CGTCGCGA yielded a binding signal of -0.068 E-score. Work on CGCTACTA yielded a binding signal of -0.0218 E-score. Sequence ACTCGCAT has a binding signal of 0.0845 E-score. With CACGGCGG the binding signal was -0.0638 E-score. GGCCGCAA was tested, and the binding signal was -0.151 E-score. For GAGTACAC, the binding signal was 0.107 E-score. In the case of AGGTAAGC, the binding signal is reported as -0.274 E-score. Sequence ATCTCCAG has a binding signal of 0.194 E-score. AGAGCGTC was tested, and the binding signal was -0.333 E-score. AACTCTCT showed a binding signal of -0.286 E-score. Work on AAACCAAT yielded a binding signal of 0.102 E-score. AGGGCTCC showed a binding signal of -0.238 E-score. ACTTTCTA was tested, and the binding signal was -0.152 E-score. Sequence ACCAGTAT has a binding signal of 0.24 E-score. In the case of AGTATGTC, the binding signal is reported as -0.119 E-score. GATGATTA was tested, and the binding signal was 0.0465 E-score. Sequence CGTACCCC has a binding signal of 0.229 E-score. Work on AAGTCAAC yielded a binding signal of -0.218 E-score. Work on ACGTGACC yielded a binding signal of -0.268 E-score. Sequence GCTAAGTA has a binding signal of 0.0679 E-score. With ACGTTTCC the binding signal was -0.28 E-score. For AGAGCAAA, the binding signal was -0.331 E-score. Sequence GGTACATA has a binding signal of 0.0662 E-score. With CATTGCAG the binding signal was 0.00213 E-score. For ACCGCAGA, the binding signal was -0.0163 E-score. With CGCTCCAG the binding signal was -0.0141 E-score. CGAGAAAC was tested, and the binding signal was -0.146 E-score. With CTCGTGTC the binding signal was 0.0485 E-score. In the case of ATATCGGG, the binding signal is reported as 0.402 E-score. With CGGGACAA the binding signal was -0.215 E-score. ACTGACCA was tested, and the binding signal was -0.209 E-score. Sequence AGATCGAT has a binding signal of 0.345 E-score. For GCGTTCCA, the binding signal was -0.0423 E-score. TCCAGTAA was tested, and the binding signal was -0.193 E-score. AGTTTGGC gave a binding signal of -0.259 E-score. In the case of CGGAACTA, the binding signal is reported as -0.0419 E-score. With ATTTTTTA the binding signal was -0.0919 E-score. Sequence AATGCTCT has a binding signal of -0.211 E-score. With TGGTTAAA the binding signal was -0.192 E-score. CATAAATC showed a binding signal of 0.0731 E-score. AATGGAGG showed a binding signal of 0.0725 E-score. Sequence CAAGTACG has a binding signal of -0.315 E-score. Sequence GACTCTCC has a binding signal of -0.214 E-score. ACTAGTAT showed a binding signal of 0.249 E-score. For AAAAGCTT, the binding signal was -0.316 E-score. With CACTTGCA the binding signal was 0.00783 E-score. In the case of ACTCAGTA, the binding signal is reported as 0.0393 E-score. ACATCGTC was tested, and the binding signal was -0.0176 E-score. Sequence GAGGTGCA has a binding signal of -0.0517 E-score. With AACACTAA the binding signal was -0.0968 E-score. In the case of CGAAACTC, the binding signal is reported as -0.195 E-score. Sequence CGCGAACG has a binding signal of -0.0749 E-score. Work on CACCAGAA yielded a binding signal of 0.0307 E-score. Work on AGCTGTAG yielded a binding signal of -0.0569 E-score. Work on AGAAAGTG yielded a binding signal of -0.292 E-score. CCAACAAA gave a binding signal of -0.106 E-score. CGGTATTA showed a binding signal of 0.368 E-score. In the case of ACATCTCG, the binding signal is reported as 0.0625 E-score. ATGGCACC showed a binding signal of 0.039 E-score. With CATTCGGG the binding signal was 0.0654 E-score. In the case of ACCACTAA, the binding signal is reported as -0.112 E-score. With GAAATTGA the binding signal was -0.0883 E-score. With ACCTTTAC the binding signal was -0.119 E-score. For ATAATTTA, the binding signal was -0.101 E-score. ACAGTTTC gave a binding signal of -0.101 E-score. In the case of AGCCCGAA, the binding signal is reported as -0.192 E-score. In the case of CTGATAGC, the binding signal is reported as 0.319 E-score. In the case of AGCTTGTA, the binding signal is reported as -0.106 E-score. For CAGACACG, the binding signal was -0.111 E-score. CCACTGAC showed a binding signal of -0.0811 E-score. In the case of AATTCACT, the binding signal is reported as -0.294 E-score. ACGCCCTG showed a binding signal of -0.0671 E-score. Work on ATGTCAAG yielded a binding signal of -0.156 E-score. AATTTAGC showed a binding signal of -0.139 E-score. AAATTCTC gave a binding signal of -0.218 E-score. AAGTCGGG was tested, and the binding signal was -0.0961 E-score. Work on CGCAAGCC yielded a binding signal of -0.138 E-score. For GAGCGTCC, the binding signal was -0.204 E-score. With AAAGGCTC the binding signal was 0.0411 E-score. With GAGGAACC the binding signal was -0.132 E-score. In the case of ACTTAAGA, the binding signal is reported as -0.0132 E-score. AGGTCCAG showed a binding signal of -0.127 E-score. Sequence AGCCCGAC has a binding signal of -0.226 E-score. Work on CCTTGATC yielded a binding signal of 0.243 E-score. With GTTGTCTA the binding signal was -0.122 E-score. In the case of AAAAGTAG, the binding signal is reported as -0.0853 E-score. Sequence GGGATACA has a binding signal of 0.383 E-score. AAGACCAA gave a binding signal of -0.194 E-score. CTTGTGAA gave a binding signal of -0.21 E-score.
